Laboratory results published in PubChem BioAssay AID743279 (National Center for Advancing Translational Sciences (NCATS), 2014).
In all, about 360,000 compounds went through this assay and about 17,000 (4.7%) were called active. Inconclusive results, whose numbers are uncertain, are shown with a selection of clear calls. Rule as the data show it: active = activity change below about -50%; inconclusive = mostly about -30% to -49%; inactive = weaker than that.

Assay: qHTS for Inhibitors of Inflammasome Signaling: IL-1-beta AlphaLISA Primary Screen
Details: THP-1 LPS/ATP IL-1B secretion, 16 h; at 57.5 µM, hits give low values
Summary of the method: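 THP-1 cells pretreated 1 hr with compounds (up to 57.5 uM final), then stimulated with LPS (250 ng/mL final) plus ATP (1.25 mM final); secreted IL-1B measured by AlphaLISA after 16 hr, decreased signal indicating inhibition.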
% is scaled to controls: 0 for no effect and ±100 for the full control effect.

| SMILES | activity change |
| --- | --- |
| CC1=NN(C(=O)c2ccc(Br)cc2)C(O)(C(F)(F)OC(F)(F)F)C1 (configuration not stated) | active: -54.8% |
| CCCn1nnnc1NCc1ccccc1C | inactive: 24.5% |
| COC(=O)c1ccc(NC(=O)Nc2ccc([N+](=O)[O-])cc2)cc1 | inconclusive: -43.9% |
| COc1cccc2c1[C@@H]1CN(CCCCn3c(=O)[nH]c4c(sc5ncc(-c6ccccc6)nc54)c3=O)C[C@@H]1CO2 | inconclusive: -35.4% |
| CCCCCCCCN1C(=O)[C@H](CC(=O)NCc2ccc(OC)c(OC)c2)C[C@@]2(C(=O)OC)CCCCC=C12 | active: -58.2% |
| CCOC(=O)/C(=N/Nc1ccc(OC)cc1)N1CCCc2ccccc21 | active: -53% |
| O=C(CCNC(=O)c1ccc(Cl)cc1)Nc1cccc(S(=O)(=O)N2CCCCCC2)c1 | inconclusive: -41.7% |
| CCOc1ccccc1N(C(=O)c1snc(C(N)=O)c1N)C(C(=O)NCc1ccccc1)c1ccc(O)cc1 (configuration not stated) | active: -67.4% |
| O=C(N/N=C/c1ccc2c(c1)OCO2)c1cccs1 | inconclusive: -47.7% |
| Cc1[nH]c2ccccc2c1C(C[N+](=O)[O-])c1cccs1 (configuration not stated) | active: -95.9% |
| O=[N+]([O-])c1ccccc1C(O)Cc1ccccn1 (configuration not stated) | inactive: -5.83% |
| CCOC(=O)c1nc(Nc2ccc(C)cc2)c2ccccc2n1 | inconclusive: -30.2% |
| Cc1ccc(C(=O)CSC2=NC(N)=C(C#N)C3(CCCCC3)C2C(N)=O)cc1 (configuration not stated) | inconclusive: -43.7% |
| C/C(=N\NC(=O)c1ccc(O)cc1)c1ccc2c(c1)Nc1ccccc1S2 | active: -101% |
| Cc1ccc([N+](=O)[O-])cc1-c1ccc(/C=C(\C#N)c2[nH]nc(N)c2C#N)o1 | inconclusive: -47.8% |
| Cc1cc(C)cc(OCC(=O)NNC(=O)c2ccccn2)c1 | inactive: 103% |
| CCCCNC(=S)N(CCCO)Cc1cc2cc3c(cc2[nH]c1=O)OCO3 | inconclusive: -48.8% |
| O=C(Nc1ccc(Cl)cc1F)c1ccc(-n2cncn2)cc1 | inconclusive: -37.3% |
| Cc1n[nH]c(=O)nc1N/N=C/c1ccc(O)c([N+](=O)[O-])c1 | inactive: -0.315% |
| COc1ccc(Nc2nc3c([nH]2)c(=O)[nH]c(=O)n3C)cc1 | inactive: 27.2% |
| Cc1nc([N+](=O)[O-])c(Br)n1CC(=O)c1cccc([N+](=O)[O-])c1 | active: -97.9% |

| SMILES | activity change |
| --- | --- |
| COCCOc1ccc(C(F)(F)F)cc1Nc1nc2ccccc2o1 | inconclusive: -44.5% |
| OC(c1ccccc1)(c1ccccc1)C1CCN(C(=S)NC2CCCC2)CC1 | inconclusive: -37.1% |
| Cc1ccc(NC(=O)Cn2nnc(-c3ccccc3-n3cnnn3)n2)c(C)c1 | inconclusive: -40.7% |
| O/N=C/c1ccc(OCc2ccccc2)c(Br)c1 | inconclusive: -42% |
| CC(=O)c1c(N2CCN(c3ccc(F)cc3)CC2)nc(=S)n(Cc2ccccc2)c1C | inconclusive: -30.4% |
| Cc1ccc(CN2C3=NCCN3c3ccccc32)cc1 | inconclusive: -43.9% |
| CN(C)c1ccc(NC(=O)Nc2cccc(Cl)c2)cc1 | inconclusive: -31.3% |
| CCOC(=O)c1cccc(NC(=O)CN2C(=O)C3C4C=CC(C4)C3C2=O)c1 (configuration not stated) | active: -94.9% |
| O=C(NCc1ccco1)C(c1ccccc1)N(Cc1ccccc1)C(=O)Cn1nnc2ccccc21 (configuration not stated) | inconclusive: -38.4% |
| Cc1cc(C)c(O)c(-c2cc(C(=O)NCc3ccccc3)[nH]n2)c1 | inconclusive: -43.8% |
| COc1ccc(C=CC(=O)c2cc(O)ccc2O)cc1 | inconclusive: -47.9% |
| CC(C)(C)c1cc(C(=O)N/N=C/c2ccc([N+](=O)[O-])s2)n[nH]1 | inconclusive: -44.5% |
| Cc1c(CCOC(=O)CC23CC4CC(CC(C4)C2)C3)sc[n+]1CC(=O)c1ccc(Br)cc1 | active: -61.5% |
| CC1Cc2ccccc2N1C(=O)C1CCCN1S(=O)(=O)c1ccc(Cl)cc1 (configuration not stated) | inactive: -18.7% |
| COc1ccc(S(=O)(=O)N(C)[C@H]2C[C@H]3c4cc(Oc5ccccc5C)ccc4CCN3C(=O)[C@H]2[C@H](C)O)cc1 | inconclusive: -37.5% |
| CCOCCCNC(=O)CN1C(=O)COc2ccc(S(=O)(=O)N3CCC(C)CC3)cc21 | inconclusive: -39.6% |
| CCOC(=O)C1(Cc2ccccc2)CCN(Cc2ccon2)CC1 | inactive: 5.95% |
| COc1ccc(/C=C2\COc3ccccc3C2=O)cc1OC | active: -98.5% |
| CCOc1ccc2nc(NC(=O)Cc3cccs3)sc2c1 | inconclusive: -33% |
| CCOC(=O)c1sc(-c2ccccc2)cc1NC(=O)CSc1nnnn1C | inconclusive: -41.3% |
| Cc1cccc(N2CCN(S(=O)(=O)c3c(C)[nH]c(C)c3C(=O)N3CCCCC3)CC2)c1C | active: -51.2% |

| SMILES | activity change |
| --- | --- |
| O=C(CCNc1ccc(Cl)cc1)c1cccs1 | inconclusive: -49% |
| O=[N+]([O-])c1cc2no[n+]([O-])c2cc1N1CCCCC1 | active: -78.4% |
| Oc1ccc(C[C@H]2CNC(=S)N2CC2CCCN2C[C@H](Cc2ccc(O)cc2)N2C[C@H](Cc3ccc(O)cc3)N(CC3CCCCCC3)C2=S)cc1 (some centres not stated) | inconclusive: -43.2% |
| CCCCCCn1c2c(c(=N)c3c1CCC3)CCC2 | inconclusive: -43.3% |
| CCN(CC(O)Cn1c2ccccc2c2ccccc21)S(=O)(=O)c1ccc(F)cc1 (configuration not stated) | inconclusive: -32.6% |
| CC(C(=O)Nc1ccc(Cl)cc1)c1ncc(C(F)(F)F)cc1Cl (configuration not stated) | inactive: -12% |
| COc1ccc([C@H]2C[C@@H](O)[C@H](n3cc(C4CC4)nn3)CN2C(=O)c2cccs2)cc1 | inactive: -1.37% |
| O=C1C=C(c2ccc(Oc3ccccc3)cc2)C[C@@H](c2ccc(F)cc2)C1 | inconclusive: -30.7% |
| Nc1ncnc2c1ncn2[C@@H]1O[C@H](C(=O)Nc2cc(C(F)(F)F)cc(C(F)(F)F)c2)[C@@H](O)[C@H]1O | inconclusive: -38.5% |
| O=C(COC(=O)c1ccccc1)Nc1cccc(S(=O)(=O)N2CCOCC2)c1 | inconclusive: -30.1% |
| CCCC1=[N+](CC(=O)c2ccccc2)CCn2c(C)ccc21 | inconclusive: -38% |
| Cc1cccnc1NC(=O)c1ccc([N+](=O)[O-])o1 | inconclusive: -43.2% |
| C=CCN(c1ccccc1)S(=O)(=O)c1cccc(C(=O)NCC(c2ccccc2OC)N2CCCC2)c1 (configuration not stated) | inconclusive: -38.6% |
| CCOc1ccc(C=NNC(=O)c2ccc(-n3cnnn3)cc2)cc1 | inconclusive: -42% |
| COc1cccc(CNC(=O)COc2cccc3c2OC(C)(C)C3)c1 | inconclusive: -34.3% |
| CN(C(=O)COC(=O)c1cc([N+](=O)[O-])ccc1Cl)c1ccccc1 | inconclusive: -45.7% |
| COC(=O)C1=C(C)NC(C)=C(C(=O)OC)C1c1ccc(-c2cccc([N+](=O)[O-])c2)o1 | inconclusive: -30.4% |
| CCOC(=O)N1CCN(c2nnc(-c3ccc(C)cc3)c3ccccc23)CC1 | active: -67.1% |
| CCN1C(=O)[C@H]2[C@@H](c3ccc(-c4ccc(F)cc4)cc3)N[C@@](Cc3ccccc3)(C(=O)OC)[C@H]2C1=O | inconclusive: -40.5% |
| Cc1ccc2c(C)c(C(=O)N(Cc3ccc(F)cc3)C3CCS(=O)(=O)C3)oc2c1 (configuration not stated) | inconclusive: -42.7% |
| O=C(COC(=O)/C=C/c1ccc(S(=O)(=O)N2CCOCC2)cc1)NCc1ccc2c(c1)OCO2 | inactive: -10.7% |

| SMILES | activity change |
| --- | --- |
| Cc1[nH]c2ccccc2c1N=Nc1ccc(F)cc1 | inconclusive: -38.9% |
| O=C(NCc1ccccn1)c1ccc2c(c1)N(Cc1ccccc1)CCS2 | inactive: -23.8% |
| O=C1C(NS(=O)(=O)c2cccs2)=C(N2CCN(c3cccc(C(F)(F)F)c3)CC2)C(=O)c2ccccc21 | inactive: -24% |
| Cc1ccc(CCC(=O)Nc2ccc(Br)cc2)o1 | inconclusive: -46.3% |
| Cc1nc(N2CCN(c3ccccn3)CC2)c2c(C)c(C(=O)Nc3ccc(Cl)cc3)sc2n1 | active: -58.1% |
| COC(=O)C[C@@H]1C[C@@H]2c3cc(NC(=O)Cc4ccncc4)ccc3O[C@@H]2[C@@H](CO)O1 | inactive: 11.5% |
| CCc1nc2nc(C)c(NS(=O)(=O)c3ccc(Cl)s3)c(=O)n2[nH]1 | inactive: 41.6% |
| O=C(NNC(=O)C1C2C=CC(C2)C1C(=O)O)c1cc(Cl)ccc1O (configuration not stated) | inactive: -6.63% |
| COc1cc(/C=C/C(=O)c2ccc(C)c([N+](=O)[O-])c2)cc(OC)c1O | inconclusive: -39.9% |
| COc1ccc(C(=O)O)cc1NC(=S)NC(=O)/C=C/c1ccc(C(C)C)cc1 | active: -66% |
| CC(=O)c1ccc(NC(=O)c2cccs2)cc1 | inconclusive: -42.2% |
| O=C(COC(=O)c1cc([N+](=O)[O-])ccc1NCCO)c1ccccc1 | inconclusive: -34.9% |
| O=C(O)CNC(=O)c1ccccc1Br | inactive: 23% |
| CSc1ccc(NC(=O)NCCCN2CCN(c3ccccc3F)CC2)cc1 | inconclusive: -39% |
| O=C(/C=C/[C@H]1O[C@@H](n2cnc3c(NC(=O)c4ccccc4)ncnc32)[C@H](O)[C@@H]1O)NCC1CCCO1 (some centres not stated) | inconclusive: -39.8% |
| CC(=O)Nc1sc2c(c1C(c1cccc(Cl)c1)N1CCN(CCO)CC1)CCCC2 (configuration not stated) | inactive: -16% |
| CCCCN1C(=N)N([C@@H](C)CN2CCC[C@H]2CN2C(N)=NC[C@@H]2Cc2ccccc2)C[C@H]1Cc1ccccc1 | inconclusive: -41.5% |
| CCOc1cc(/C=N\Nc2ncc(F)c(N3CCOCC3)n2)ccc1Oc1nc(Cl)ncc1F | active: -83.5% |
| O=c1[nH]c(=O)n(C(c2ccccc2)(c2ccccc2)c2ccccc2)cc1N(CCO)CCO | active: -50.6% |
